Measurements reported in the supplement of paper PMC7125110.
± gives the standard error. This sample is rich in variants without activity.

B1: glmS ribozyme (parent)
chain: AUAAAAGCGCCAGAACUACAGAAAUGUAGUUGACGAGGAGGAGGUUUAUCGAAUUUUCGGCGGAUGCCUCCAAA

Variants of: B1
Test: self-cleavage kobs at 10000 uM GlcN6P; higher = faster cleavage; RNA array
Conditions: with glucosamine-6-phosphate
Procedure, shortened: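 Weighted Michaelis–Menten fits across concentrations supplied kcat and KM, based on kobs from one- or two-exponential decay fits to normalised per-tile medians. The data came from barcoded ribozyme variants transcribed in situ by E. coli RNA polymerase on sequenced MiSeq chips and tracked at 37 °C by a hybridised Cy3 probe. Glucosamine-6-phosphate (40 μM to 10 mM) in HEPES/KCl/Mg(OAc)2 buffer was flowed in.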

Variant	self-cleavage kobs at 10000 uM GlcN6P
C34A G40C A42U	< 1e-05 s⁻¹
C34A G44C G66U C71G	< 1e-05 s⁻¹
C34A G44U U46G C68A	< 1e-05 s⁻¹
C34G A36C A52G	< 1e-05 s⁻¹
C34G A64C C67A	< 1e-05 s⁻¹
C34G G35U	< 1e-05 s⁻¹
C34G G40A G51A G63A C68A	< 1e-05 s⁻¹
C34U G43U U57G U65G	< 1e-05 s⁻¹
C34U G44U U54A G63C	< 1e-05 s⁻¹
G35A A52C A53C	< 1e-05 s⁻¹
G35C A42G U45G	< 1e-05 s⁻¹
G35C C61U C70U	< 1e-05 s⁻¹
G35C U46G C70U	< 1e-05 s⁻¹
G35U A36U G44U C68G	< 1e-05 s⁻¹
A36C A39U A64C C71U	< 1e-05 s⁻¹
A36C A48U G63A	< 1e-05 s⁻¹
A36C A52U C58U G63A	< 1e-05 s⁻¹
A36C G37C A42U G51U	< 1e-05 s⁻¹
A36C G37C A52G	< 1e-05 s⁻¹
A36C G38C A42C	< 1e-05 s⁻¹
A36C G38C A64C	< 1e-05 s⁻¹
A36C G51U G59A C71A	< 1e-05 s⁻¹
A36G G38U G43C C71U	< 1e-05 s⁻¹
A36G G40A G51U G62C G66C	< 1e-05 s⁻¹
A36G U46A A52U C67G	< 1e-05 s⁻¹
A36U A39C C71U	< 1e-05 s⁻¹

Variant	self-cleavage kobs at 10000 uM GlcN6P
A36U G38C G40A	< 1e-05 s⁻¹
A36U G38U	< 1e-05 s⁻¹
A36U G59U G60A G62A	< 1e-05 s⁻¹
A36U U45A C61G G62C U69G	< 1e-05 s⁻¹
G37A G60C	< 1e-05 s⁻¹
G37A G60U G66A C70U	< 1e-05 s⁻¹
G37A U45A C61U C67U	< 1e-05 s⁻¹
G37A U46G G59C	< 1e-05 s⁻¹
G37C A48G U49A	< 1e-05 s⁻¹
G37C C70A	< 1e-05 s⁻¹
G37C G51C C58U G62U	< 1e-05 s⁻¹
G37C U57G G62U A64C	< 1e-05 s⁻¹
G37U C58G G63U	< 1e-05 s⁻¹
G37U C70A	< 1e-05 s⁻¹
G37U C71A	< 1e-05 s⁻¹
G38A A42G U49A	< 1e-05 s⁻¹
G38A G44C C58U	< 1e-05 s⁻¹
G38C A39U G41A	< 1e-05 s⁻¹
G38C A52C C61A	< 1e-05 s⁻¹
G38U A39C G40U G43U U54C	< 1e-05 s⁻¹
G38U C50G C71A	9.8e-05 ± 1.9e-05 s⁻¹
G38U G43C A53C C68A	< 1e-05 s⁻¹
A39C A48G C70A	< 1e-05 s⁻¹
A39C G43A G60A C68U	< 1e-05 s⁻¹
A39C G44A U54G A64G	< 1e-05 s⁻¹
A39C G44C G60U	< 1e-05 s⁻¹

Variant	self-cleavage kobs at 10000 uM GlcN6P
A39C G63U C71U	< 1e-05 s⁻¹
A39C U55G C70U	0.000211 ± 4e-05 s⁻¹
A39C U57C A64C	< 1e-05 s⁻¹
A39C U65G C68G	< 1e-05 s⁻¹
A39G U45C C67A	0.00692 ± 0.0024 s⁻¹
A39G U49G	0.000904 ± 0.00021 s⁻¹
A39G U56G C68U	0.00322 ± 0.0012 s⁻¹
A39U A48G G60A	< 1e-05 s⁻¹
A39U G41C A52C A53U U55G	< 1e-05 s⁻¹
A39U G63U U65A	< 1e-05 s⁻¹
G40A C50A U56C	< 1e-05 s⁻¹
G40A G44U U47G G60U C61U C68U	< 1e-05 s⁻¹
G40A U57A C61G	< 1e-05 s⁻¹
G40C G43A A48C U65G	< 1e-05 s⁻¹
G40U G43C U65A	< 1e-05 s⁻¹
G40U G59C G63U	< 1e-05 s⁻¹
G41A C61U A64C	< 1e-05 s⁻¹
G41A C61U A64G C71U	< 1e-05 s⁻¹
G41C G60C U69A	< 1e-05 s⁻¹
G41U C67G C68A	0.000314 ± 0.00012 s⁻¹
A42C G44A U45G A52C C68G	< 1e-05 s⁻¹
A42C U46A U57C G62C	< 1e-05 s⁻¹
A42C U46C U49G U54A	< 1e-05 s⁻¹
A42G A52C G60U C67A	< 1e-05 s⁻¹
A42G U55A C68G	7.44e-05 ± 2e-05 s⁻¹
A42G U55C G60A	4.43e-05 ± 1.7e-05 s⁻¹

Variant	self-cleavage kobs at 10000 uM GlcN6P
A42U A64C C70U C71U	< 1e-05 s⁻¹
G43C U57G C58A	< 1e-05 s⁻¹
G44A U45A C58G	< 1e-05 s⁻¹
G44A U56C C61U G63U	< 1e-05 s⁻¹
G44C U45A G62U	< 1e-05 s⁻¹
G44C U57G	< 1e-05 s⁻¹
U45A A53G U55A U65A C67A	0.000759 ± 0.00025 s⁻¹
U45C U65G C70U	0.000225 ± 6.1e-05 s⁻¹
U46A G62C C71U	< 1e-05 s⁻¹
U46A U47G A48G A52U C58U C68G	< 1e-05 s⁻¹
U46C G51C	< 1e-05 s⁻¹
U46G C61U G62A	< 1e-05 s⁻¹
U46G C68A	3.1e-05 ± 1.1e-05 s⁻¹
U47A G60U	< 1e-05 s⁻¹
U47C G51A U57G	< 1e-05 s⁻¹
U47C G51U G62C	< 1e-05 s⁻¹
A48C C50G	< 1e-05 s⁻¹
A48C G62U C67U C71G	< 1e-05 s⁻¹
A48G C50A G63C	< 1e-05 s⁻¹
A48G C61G C68U	< 1e-05 s⁻¹
A48G U49G	5.7e-05 ± 2.1e-05 s⁻¹
A48U G59C G62U C67G C70G	< 1e-05 s⁻¹
A48U U49A U56C	< 1e-05 s⁻¹
U49A U65G C67G U69A	< 1e-05 s⁻¹
U49C C50U U56C	< 1e-05 s⁻¹
U49C G66U C71U	< 1e-05 s⁻¹

Variant	self-cleavage kobs at 10000 uM GlcN6P
U49G G60U A64C	< 1e-05 s⁻¹
U49G U55A C61A G66U C71U	< 1e-05 s⁻¹
U49G U57A G63A	< 1e-05 s⁻¹
C50A A52G	< 1e-05 s⁻¹
C50A G60C	< 1e-05 s⁻¹
C50G U54C C71U	4.14e-05 ± 1.5e-05 s⁻¹
C50U G59A U69C	< 1e-05 s⁻¹
C50U G62U G66U	< 1e-05 s⁻¹
G51A A53C C58G	< 1e-05 s⁻¹
G51A C71A	< 1e-05 s⁻¹
G51A G60U C70U	< 1e-05 s⁻¹
G51C G63U U65G C67G	< 1e-05 s⁻¹
G51U U55C C67U U69G	< 1e-05 s⁻¹
G51U U56A U65G	< 1e-05 s⁻¹
U55A G62C C71U	< 1e-05 s⁻¹
U55C C61A	< 1e-05 s⁻¹
U55C U69A C70U	< 1e-05 s⁻¹
U56C C68U C70A	< 1e-05 s⁻¹
U56C U65G U69A	< 1e-05 s⁻¹
U56G C58A G59A G63C C71G	< 1e-05 s⁻¹
U56G C58U C67A	3.62e-05 ± 1.5e-05 s⁻¹
U56G U57G	< 1e-05 s⁻¹
U57C C61U C71A	< 1e-05 s⁻¹
G62U C68A	< 1e-05 s⁻¹
A64U U69C	4.48e-05 ± 1.3e-05 s⁻¹
